PMC6602471
The list shows a part of the results. At the low end of the ranking the order means little.

target: T1, ELK1 (UniProt P19419); test: custom PBM; conditions: custom protein-binding microarray; buffer, salt, pH and temperature not stated; high values mean tight binding; double strand, one strand shown
T1 sequence: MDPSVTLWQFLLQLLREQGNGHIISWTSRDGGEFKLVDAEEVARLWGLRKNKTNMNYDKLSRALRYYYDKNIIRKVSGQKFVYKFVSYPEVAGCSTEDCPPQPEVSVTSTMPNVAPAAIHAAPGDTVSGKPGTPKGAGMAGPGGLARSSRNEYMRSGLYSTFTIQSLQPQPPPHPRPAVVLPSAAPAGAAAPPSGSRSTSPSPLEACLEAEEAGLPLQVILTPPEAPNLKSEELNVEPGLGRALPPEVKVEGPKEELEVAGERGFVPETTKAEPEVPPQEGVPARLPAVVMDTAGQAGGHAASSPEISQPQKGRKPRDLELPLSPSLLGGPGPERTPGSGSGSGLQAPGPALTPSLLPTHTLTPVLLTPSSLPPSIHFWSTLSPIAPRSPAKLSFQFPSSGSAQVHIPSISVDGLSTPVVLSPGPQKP

| Sequence | binding signal (log fluorescence intensity) |
| --- | --- |
| GATTAATTTCTGCCCTTATTCGCGCGTGCCATAACAGTCTTGATTCGCTTGACGCTGCTG | 8.86 |
| TAAAGGGAAGGCGGTTGTGGTAGTTCCGGGTATTAAGTCTTGATTCGCTTGACGCTGCTG | 11.5 |
| TCCGGCTAACAGCTCCACCCACTTCAGGCCTTGTAGGTCTTGATTCGCTTGACGCTGCTG | 8.89 |
| TACTGACTTATATATGGGAATGCACATGAATAGACCGTCTTGATTCGCTTGACGCTGCTG | 9.03 |
| CGGAAGTGTCGTAAACCTCGGATATCCGGTTCTTCTGTCTTGATTCGCTTGACGCTGCTG | 12.2 |
| TAAAGGGAAGACGCTTGTGGTAGTTCCGGGTATTAAGTCTTGATTCGCTTGACGCTGCTG | 11 |
| CTGGGACTTGGCCCAACTCTGCCACGTGGGTCGTTTGTCTTGATTCGCTTGACGCTGCTG | 8.95 |
| TGTCGGGTAAGGGCATGTAGATCACGTGAATGAAAAGTCTTGATTCGCTTGACGCTGCTG | 8.92 |
| GTGTATAGGATCCCATCCAACTCACGTGTTAAAATGGTCTTGATTCGCTTGACGCTGCTG | 8.85 |
| CGGAAGTGTCGTAAACGTCGGATATCCGGATCTTCTGTCTTGATTCGCTTGACGCTGCTG | 11.8 |
| CTGGGACTTGACCCAACTCTGCCACGTTGGTCGTTTGTCTTGATTCGCTTGACGCTGCTG | 8.98 |
| CACAATTTTTACAGTAATGTAGCACGCGTAACTCCAGTCTTGATTCGCTTGACGCTGCTG | 8.83 |
| CAGCATAGGAGTTCTTCCCTGAAGCAATTGATAACCGTCTTGATTCGCTTGACGCTGCTG | 8.66 |
| TCCGCCTACCAGCTCCACCCACTTCAGGCCTTGTAGGTCTTGATTCGCTTGACGCTGCTG | 8.86 |
| GATTAATTACTGCCCTTATTCGCACGTGCCATAACAGTCTTGATTCGCTTGACGCTGCTG | 8.85 |
| CGGAAGTGTCGTAAACGTCGGATATCCGATTCTTCTGTCTTGATTCGCTTGACGCTGCTG | 11.1 |
| GCTGCTGCGGTGCATACCCCACCGGGTGTGACCCCGGTCTTGATTCGCTTGACGCTGCTG | 8.9 |
| GATTAATTTATGCCCTTATTCGCACGTGCCATAACAGTCTTGATTCGCTTGACGCTGCTG | 8.81 |
| GGAAAAAGGCTCAGGGTAACACCGGAAGTGGGCTTAGTCTTGATTCGCTTGACGCTGCTG | 10.9 |
| CTGAAGTGTCGTAAACGTCGGATATCCGGTTCTTCTGTCTTGATTCGCTTGACGCTGCTG | 12.3 |
| GGATAAAGGCCCAGGGTAACACCGGAAGTGGGCTTAGTCTTGATTCGCTTGACGCTGCTG | 10.8 |

| Sequence | binding signal (log fluorescence intensity) |
| --- | --- |
| TGTCCGGTAAGGGAATGTAGATCACGTGAATGAAAAGTCTTGATTCGCTTGACGCTGCTG | 8.96 |
| TCCGGCTACCAGATCCACCCACTTCAGGCCTTGTAGGTCTTGATTCGCTTGACGCTGCTG | 8.95 |
| TCCGGCTACCAGCTCCACCCACTTCAGGCCTTGCAGGTCTTGATTCGCTTGACGCTGCTG | 9.06 |
| GGAAAAAGGCCCAGGGTAACACCGGAAGTGGGATTAGTCTTGATTCGCTTGACGCTGCTG | 10.9 |
| TCCGGCTACCAACTCCACCCACTTCAGGCCTTGTAGGTCTTGATTCGCTTGACGCTGCTG | 8.83 |
| GTGTATAGGATCCCATCCAACACACGTGTTAATATGGTCTTGATTCGCTTGACGCTGCTG | 8.92 |
| CACAATTTTTACAGTAATATAGCACGCGTAACTCCTGTCTTGATTCGCTTGACGCTGCTG | 8.92 |
| GGAAAAAGGCCCAGGGTAACACCGGAAGTCGGCTTAGTCTTGATTCGCTTGACGCTGCTG | 10.7 |
| CAGCATAGGACTTCTTGCCTGAAGCAATTGATAACCGTCTTGATTCGCTTGACGCTGCTG | 8.74 |
| GATTAATTTCTGCCCTTATTCGCACTTGCCATAACAGTCTTGATTCGCTTGACGCTGCTG | 9.12 |
| GGAAAAAGGCCCATGGTAACACCGGAAGTGGGCTTAGTCTTGATTCGCTTGACGCTGCTG | 10.8 |
| GCTGCTGCGGTGCTTACCCCACCGGATGTGACCCCGGTCTTGATTCGCTTGACGCTGCTG | 10.2 |
| TGTCGGGTAAGGGAATGTAGGTCACGTGAATGAAAAGTCTTGATTCGCTTGACGCTGCTG | 9.06 |
| TGTCGGGTAAGGGAATGTAGATCACGTGAATGAAAAGTCTTGATTCGCTTGACGCTGCTG | 8.83 |
| GCTGCTGCGGTGCATACCGCACCGGATGTGACCCCGGTCTTGATTCGCTTGACGCTGCTG | 10.4 |
| CAGAATTTTTACAGTAATGTAGCACGCGTAACTCCTGTCTTGATTCGCTTGACGCTGCTG | 8.74 |
| GTGTACAGGATCCCATCCAACACACGTGTTAAAATGGTCTTGATTCGCTTGACGCTGCTG | 8.86 |
| TAAAGGGAAGACGGTTGTGGTAGTACCGGGTATTAAGTCTTGATTCGCTTGACGCTGCTG | 8.87 |
| ACTGCTGCGGTGCATACCCCACCGGATGTGACCCCGGTCTTGATTCGCTTGACGCTGCTG | 10.4 |
| TAAAGGGAAGACGGTTGTGGTAGTTCCGGTTATTAAGTCTTGATTCGCTTGACGCTGCTG | 11.6 |
| GGAAAAAGGCCCAGGGTAACACCGGAAGTGGGTTTAGTCTTGATTCGCTTGACGCTGCTG | 10.9 |

| Sequence | binding signal (log fluorescence intensity) |
| --- | --- |
| CGGAAGTGTCGTCAACGTCGGATATCCGGTTCTTCTGTCTTGATTCGCTTGACGCTGCTG | 12.6 |
| TGTCGGGTAAGGGAATGGAGATCACGTGAATGAAAAGTCTTGATTCGCTTGACGCTGCTG | 8.91 |
| GATTAATTTCTGCCCTTATTCGCACGTGCCATAAGAGTCTTGATTCGCTTGACGCTGCTG | 8.87 |
| TGTCGGGTAAGGGAATGTAGATCACGTGAATGCAAAGTCTTGATTCGCTTGACGCTGCTG | 8.85 |
| TCCGGCTACCAGCTCCACCCACTTCAGGCCTTTTAGGTCTTGATTCGCTTGACGCTGCTG | 8.79 |
| GATTAATTTCTGCCCTTTTTCGCACGTGCCATAACAGTCTTGATTCGCTTGACGCTGCTG | 8.98 |
| GGAAAAAGTCCCAGGGTAACACCGGAAGTGGGCTTAGTCTTGATTCGCTTGACGCTGCTG | 11 |
| TAAAGGGAAGACGGTTGTGGTAGTTCCGGGTATTCAGTCTTGATTCGCTTGACGCTGCTG | 11.2 |
| GTGTATAGGATCCCATCCAGCACACGTGTTAAAATGGTCTTGATTCGCTTGACGCTGCTG | 8.83 |
| CAGCATAGGACTTCTTCCCTGAAGCAATCGATAACCGTCTTGATTCGCTTGACGCTGCTG | 8.85 |
| GCTGCTGCGGTGCATACCCCACCGGATGTGACCCCGGTCTTGATTCGCTTGACGCTGCTG | 10.3 |
| CACAATTTTTACAGTAATGTAGCACGCGGAACTCCTGTCTTGATTCGCTTGACGCTGCTG | 8.97 |
| GTGTATAGCATCCCATCCAACACACGTGTTAAAATGGTCTTGATTCGCTTGACGCTGCTG | 8.8 |
| GCTCCTGCGGTGCATACCCCACCGGATGTGACCCCGGTCTTGATTCGCTTGACGCTGCTG | 10.3 |
| TAAAGGAAAGACGGTTGTGGTAGTTCCGGGTATTAAGTCTTGATTCGCTTGACGCTGCTG | 11.4 |
| GGAAAAAGGCCCAGGGTAACACCGGATGTGGGCTTAGTCTTGATTCGCTTGACGCTGCTG | 10.1 |
| CAGCATAGGACTTCTTCCCTGAAGCAATTGACAACCGTCTTGATTCGCTTGACGCTGCTG | 8.63 |
| TACTGACTTATATATGCAAATGCACATGAATAGACCGTCTTGATTCGCTTGACGCTGCTG | 8.9 |
| CACAATTTTTACATTAATGTAGCACGCGTAACTCCTGTCTTGATTCGCTTGACGCTGCTG | 8.97 |
| CTGGGACTTGACCCAACTCTGCCACGTCGGTCGTTTGTCTTGATTCGCTTGACGCTGCTG | 8.88 |
| GATTAATTTCTGCCCTTATTCGCACGCGCCATAACAGTCTTGATTCGCTTGACGCTGCTG | 8.96 |

| Sequence | binding signal (log fluorescence intensity) |
| --- | --- |
| GTGGATAGGATCCCATCCAACACACGTGTTAAAATGGTCTTGATTCGCTTGACGCTGCTG | 8.92 |
| CTCAATTTTTACAGTAATGTAGCACGCGTAACTCCTGTCTTGATTCGCTTGACGCTGCTG | 8.95 |
| TGTCGGGTAAGGGAATGTAGATCACGTGTATGAAAAGTCTTGATTCGCTTGACGCTGCTG | 8.77 |
| TCCGGCTACCAGCTCCACCCACTTCAGGCCCTGTAGGTCTTGATTCGCTTGACGCTGCTG | 8.85 |
| GATTAATTTCTGCCCTTATGCGCACGTGCCATAACAGTCTTGATTCGCTTGACGCTGCTG | 8.84 |
| CTAGGACTTGACCCAACTCTGCCACGTGGGTCGTTTGTCTTGATTCGCTTGACGCTGCTG | 8.87 |
| GGAAAAAGGCCCAGGGTAACACCGGAAGTGAGCTTAGTCTTGATTCGCTTGACGCTGCTG | 10.8 |
| CAGCATAGGACTTCTTCCCTGAAGCAATTGATAAACGTCTTGATTCGCTTGACGCTGCTG | 8.83 |
| TAAAGGGAAGACGGTTGTGGTAGTTCCGGATATTAAGTCTTGATTCGCTTGACGCTGCTG | 11.2 |
| CTGGGACTTCACCCAACTCTGCCACGTGGGTCGTTTGTCTTGATTCGCTTGACGCTGCTG | 8.85 |
| TGTCGGGTAAGGGAATGTTGATCACGTGAATGAAAAGTCTTGATTCGCTTGACGCTGCTG | 9 |
| CACAATTTTTACAGTAATGTAGCACGCGTAACTCATGTCTTGATTCGCTTGACGCTGCTG | 8.92 |
| CACAATTTTTACAGTAATGTAGCACGCGTAACGCCTGTCTTGATTCGCTTGACGCTGCTG | 8.92 |
| CGGAAGTGTCGTAAACGTCGGATATCCGGTACTTCTGTCTTGATTCGCTTGACGCTGCTG | 12.3 |
| GGAAAAAGGCCCAGGGTAATACCGGAAGTGGGCTTAGTCTTGATTCGCTTGACGCTGCTG | 10.9 |
| CGGAAGTTTCGTAAACGTCGGATATCCGGTTCTTCTGTCTTGATTCGCTTGACGCTGCTG | 12.1 |
| TACTGACTTATACATGCGAATGCACATGAATAGACCGTCTTGATTCGCTTGACGCTGCTG | 8.78 |
| GATTAATTTCTGCCCCTATTCGCACGTGCCATAACAGTCTTGATTCGCTTGACGCTGCTG | 8.76 |
